The supplement of paper PMC3334620
Whole data set: some 33,000 sequences, median “E-score (-0.5 to 0.5)” near -0.016, cut for the highest 2% near 0.32. The list shows a part of the results.

Biological target: T1, Stp1 (UniProt B3LFK1)
T1 sequence: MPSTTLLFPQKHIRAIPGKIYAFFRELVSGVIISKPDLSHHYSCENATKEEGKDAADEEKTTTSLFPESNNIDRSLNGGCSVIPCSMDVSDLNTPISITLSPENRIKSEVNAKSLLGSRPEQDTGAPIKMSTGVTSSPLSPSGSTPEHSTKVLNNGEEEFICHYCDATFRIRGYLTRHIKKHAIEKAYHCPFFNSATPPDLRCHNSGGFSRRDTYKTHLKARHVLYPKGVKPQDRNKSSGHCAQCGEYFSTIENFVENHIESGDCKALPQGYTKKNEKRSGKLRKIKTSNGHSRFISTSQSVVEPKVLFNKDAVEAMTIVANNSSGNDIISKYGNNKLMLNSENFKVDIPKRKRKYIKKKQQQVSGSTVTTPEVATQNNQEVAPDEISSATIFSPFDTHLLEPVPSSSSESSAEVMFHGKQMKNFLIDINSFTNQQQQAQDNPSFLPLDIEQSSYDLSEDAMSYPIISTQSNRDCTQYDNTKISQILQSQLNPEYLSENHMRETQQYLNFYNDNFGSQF
Assay: PBM E-score (8-mer binding enrichment) (E-score (-0.5 to 0.5)); higher = stronger / more preferred TF binding; most listed sequences are background and not binding sites
Details: protein concentration: 200 nM; construct: GST-full length
Procedure: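 Universal 'all 10-mer' protein binding microarrays (Agilent AMADID 015681) probed with GST-tagged S. cerevisiae TFs (full-length or DBD) made by in vitro transcription/translation (PURExpress), about 100-200 nM. Bound TF was detected with fluorescent anti-GST. Each ungapped 8-mer (which stands for itself and its reverse complement) is scored by the PBM enrichment score (E-score), a modified Wilcoxon-Mann-Whitney statistic from -0.5 to +0.5, computed with the Universal PBM Analysis Suite. Scale: above 0.35 generally sequence-specific binding.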

Sequence	PBM E-score
ATGGAGAG	-0.0615
GTCGGATA	-0.0528
ACTATATC	0.0735
AGCGGAGA	-0.132
ACAAGGGC	-0.0113
AGTGTAAG	-0.0377
CCCTAAGG	-0.258
CAGGGCGC	0.363
GGCGACAA	0.3
ACAGCCAA	-0.0404
CGCGGAAC	0.383
TCAGTCAA	0.0441
GATTGCGC	0.232
AGAAGTAG	-0.0353
ATATCCCA	0.111
CGTCAATC	0.147
CAGTTGTA	-0.0706
ACTGGTTA	-0.0769
ACTTTAAC	-0.0213
ACAGGCCA	-0.118
ATTTTGGC	0.0882
CTGTTGAA	0.139
ATCGTGTG	0.186
CTTTCCTA	-0.137
AGGTTGGA	-0.133

Sequence	PBM E-score
ATTTCACC	-0.0158
CAACGTTC	-0.242
ACTCAAGG	-0.176
TACCCCGA	0.0291
GTACAAAA	0.198
AGAGCATA	-0.0735
CGCAGCAC	0.27
AATATGGG	-0.0391
ACATACAT	0.0575
CTTGCTCA	-0.149
ACAGCAAA	0.172
CGTGGAAA	0.177
AGTTGCAT	0.122
ACACCCGG	0.0218
GCCGGAAC	0.0527
ATAGTTCA	0.128
ATAATGCA	-0.0333
AATCCCGA	0.0853
ACATTTCA	-0.00157
CGTCTGCC	0.0318
ATTCTTGC	0.112
GCTCGGAC	-0.166
AACTACGC	0.106
AAGACCAG	-0.234
GATATATC	0.106

Sequence	PBM E-score
ACTGAGTA	-0.242
CTGGAATA	-0.0227
GTCCACAC	0.049
GTCACCCA	-0.21
CTTACACA	-0.0994
AACAGGCA	-0.018
CACGTTGG	-0.119
GTAGCAAC	0.0406
CACCGCAG	-0.01
ACTCCATA	-0.165
CGTCGACC	-0.011
ATAGCCGC	0.298
GAGCGCCA	0.0261
CGTTTAGA	0.144
AAGGTTCT	-0.0888
CCTGGTTC	-0.0663
CTATGTCC	-0.184
ATACGGAC	0.105
AAGAAAAC	0.0611
ATATCGAA	0.0808
ACGATCTC	-0.108
ACACACCG	-0.152
AGTCTCTG	-0.0591
ATCAAGTC	-0.081
CAGCGGGA	-0.174

Sequence	PBM E-score
ACGATTTC	0.152
AGATCGAT	-0.165
AGAAAATC	0.0861
CCGTGAAC	0.0525
CGATTTTA	0.179
ACCCACAG	-0.148
CAGAAATC	0.103
CAGACGTC	-0.116
CGCGAATA	-0.0469
CCCATGGG	0.128
GTATACTA	-0.126
ACCATGGG	-0.161
GCAGGTAC	-0.167
ACCCTAAA	-0.0152
TATTAGAA	0.167
GCCGCAAA	0.309
AGGAAAAA	0.0874
GGAAAAAA	0.149
CAAGACGC	-0.0219
ATTCGATA	-0.0104
TCCGGTAA	-0.0422
GAGAAAAA	0.13
CACCAAGG	-0.0658
ATGCTACC	-0.0455
CGCTACAG	-0.0259

Sequence	PBM E-score
AAAGCGAT	0.0601
AATACCTA	0.102
TCAAGAAA	0.223
CGTAATGC	0.0853
AGAAGCAT	0.0027
CGAGTGCA	0.147
AGCTTATC	0.036
CGGCTGAG	-0.00052
CTCCCGAG	-0.367
ATTGCGAC	0.0715
CACTTCTC	-0.174
AGGCGGAT	-0.0693
GCGGTGGA	-0.0823
CCTTACTC	0.0999
CATAGCAA	0.0603
GGTGAGCA	-0.285
GCATGTAC	-0.00931
CTCGTAAG	0.199
CGAAGTAG	-0.068
ACGCAGGC	-0.0284
TAAGGTGA	-0.113
AAGTCCTG	-0.186
AAAAAGGA	0.00823
CCTGAAGC	-0.308
TGTTAAAA	0.12

Sequence	PBM E-score
ATATTAAA	0.302
CTTTACGA	0.0486
CGGTACCA	-0.182
ATTAATAC	0.17
GAGGCCTC	-0.0558
ACAACGAC	0.011
CTCAGGTA	-0.268
ACGGCTCC	0.449
ATGTACTG	-0.104
ACGTTAGC	0.159
CAGTAAAC	0.077
CCTAGGCA	-0.0124
CAAGACAA	0.187
AAAACTAT	0.0296
AATCGGAG	-0.0886
CTAGATAC	0.0423
ACCTGGAC	-0.303
AATTTATC	0.267
AGTAAAGA	-0.0377
TTGTACAA	0.15
AGGTAAAA	0.0924
GCAGCTGA	0.0289
AATCTTTG	0.141
CTACAAAA	0.0378
GAACACCC	-0.106

Sequence	PBM E-score
GCGACAGA	-0.0165
CTAGGTCC	-0.102
AGCCACCG	-0.00661
TGCTCCCA	-0.211
GGGTGCCA	0.0789
AGCCAAGC	-0.189
GCTCTCAA	0.0022
AAGCCGCA	0.386
ATAGCAGA	-0.0278
ATGGTTTG	0.0184
GATTCCCC	-0.246
AACTGTTG	-0.235
GAAGTCGA	-0.109
CAAAACAG	0.012
GGGAACCA	-0.205
GAAAGGCC	0.272
GGGGACTA	-0.358
CTGGTACA	-0.0824
CCTTTCGA	0.17
GCGCTTTA	0.201
CGCTTCAA	0.0401
ACTACACG	-0.00839
